This is one part of the list.
How the values were obtained:
Assay in all cases: glycan array binding signal (z-score within array); higher = stronger binding
Conditions in all cases: glycan notation: IUPAC condensed, linker removed
Fuc(a1-2)Gal = molecular target: Fuc(a1-2)Gal
How it was run: (§1)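 From the Consortium for Functional Glycomics database, 3228 arrays were curated, keeping only those whose protein sequence was available. Binding is given as a within-array Z-score averaged across arrays sharing a protein sequence and across linkers. Negative Z-scores can be read as non-binding.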

Fuc(a1-2)Gal(b1-3)GalNAc = molecular target: Fuc(a1-2)Gal(b1-3)GalNAc
How it was run: as §1

[1] = molecular target: Fuc(a1-2)Gal(b1-3)GalNAc(a1-3)[Fuc(a1-2)]Gal(b1-4)Glc
How it was run: as §1

[2] = molecular target: Fuc(a1-2)Gal(b1-3)GalNAc(a1-3)[Fuc(a1-2)]Gal(b1-4)GlcNAc
How it was run: as §1

[3] = molecular target: Fuc(a1-2)Gal(b1-3)GalNAc(b1-3)Gal
How it was run: as §1

[4] = molecular target: Fuc(a1-2)Gal(b1-3)GalNAc(b1-3)Gal(a1-4)Gal(b1-4)Glc
How it was run: as §1

[5] = molecular target: Fuc(a1-2)Gal(b1-3)GalNAc(b1-4)[Neu5Ac(a2-3)]Gal(b1-4)Glc
How it was run: as §1

Fuc(a1-2)Gal(b1-3)GlcNAc = molecular target: Fuc(a1-2)Gal(b1-3)GlcNAc
How it was run: as §1

[6] = molecular target: Fuc(a1-2)Gal(b1-3)GlcNAc(b1-2)Man(a1-3)[Fuc(a1-2)Gal(b1-3)GlcNAc(b1-2)Man(a1-6)]Man(b1-4)GlcNAc(b1-4)GlcNAc
How it was run: as §1

[7] = molecular target: Fuc(a1-2)Gal(b1-3)GlcNAc(b1-2)Man(a1-3)[Fuc(a1-2)Gal(b1-3)GlcNAc(b1-2)Man(a1-6)]Man(b1-4)GlcNAc(b1-4)[Fuc(a1-6)]GlcNAc
How it was run: as §1

[8] = molecular target: Fuc(a1-2)Gal(b1-3)GlcNAc(b1-3)Gal(b1-4)Glc
How it was run: as §1

[9] = molecular target: Fuc(a1-2)Gal(b1-3)GlcNAc(b1-3)GalNAc
How it was run: as §1

[10] = molecular target: Fuc(a1-2)Gal(b1-3)GlcNAc(b1-3)[Fuc(a1-2)Gal(b1-3)GlcNAc(b1-6)]GalNAc
How it was run: as §1

[11] = molecular target: Fuc(a1-2)Gal(b1-3)GlcNAc(b1-3)[Fuc(a1-3)[Gal(b1-4)]GlcNAc(b1-6)]Gal(b1-4)Glc
How it was run: as §1

[12] = molecular target: Fuc(a1-2)Gal(b1-3)GlcNAc(b1-3)[Gal(b1-4)GlcNAc(b1-6)]Gal(b1-4)Glc
How it was run: as §1

[13] = molecular target: Fuc(a1-2)Gal(b1-3)GlcNAc(b1-3)[Neu5Ac(a2-6)Gal(b1-4)GlcNAc(b1-6)]Gal(b1-4)Glc
How it was run: as §1

[14] = molecular target: Fuc(a1-2)Gal(b1-3)GlcNAc6S
How it was run: as §1

[15] = molecular target: Fuc(a1-2)Gal(b1-3)[Fuc(a1-4)]GlcNAc
How it was run: as §1

[16] = molecular target: Fuc(a1-2)Gal(b1-3)[Fuc(a1-4)]GlcNAc(b1-2)Man(a1-3)[Fuc(a1-2)Gal(b1-3)[Fuc(a1-4)]GlcNAc(b1-2)Man(a1-3)]Man(b1-4)GlcNAc(b1-4)GlcNAc
How it was run: as §1

[17] = molecular target: Fuc(a1-2)Gal(b1-3)[Fuc(a1-4)]GlcNAc(b1-2)Man(a1-3)[Fuc(a1-2)Gal(b1-3)[Fuc(a1-4)]GlcNAc(b1-2)Man(a1-6)]Man(b1-4)GlcNAc(b1-4)GlcNAc
How it was run: as §1

[18] = molecular target: Fuc(a1-2)Gal(b1-3)[Fuc(a1-4)]GlcNAc(b1-2)Man(a1-3)[Fuc(a1-2)Gal(b1-3)[Fuc(a1-4)]GlcNAc(b1-2)Man(a1-6)]Man(b1-4)GlcNAc(b1-4)[Fuc(a1-6)]GlcNAc(b1-4)[Fuc(a1-6)]GlcNAc
How it was run: as §1

[19] = molecular target: Fuc(a1-2)Gal(b1-3)[Fuc(a1-4)]GlcNAc(b1-3)[Fuc(a1-3)[Gal(b1-4)]GlcNAc(b1-6)]Gal(b1-4)Glc
How it was run: as §1

[20] = molecular target: Fuc(a1-2)Gal(b1-3)[Fuc(a1-4)]GlcNAc(b1-3)[Gal(b1-4)GlcNAc(b1-6)]Gal(b1-4)Glc
How it was run: as §1

[21] = molecular target: Fuc(a1-2)Gal(b1-4)Fuc(a1-3)]GlcNAc(b1-2)Man(a1-3)[Fuc(a1-2)Gal(b1-4)[Fuc(a1-3)]GlcNAc(b1-2)Man(a1-6)]Man(b1-4)GlcNAc(b1-4)GlcNAc
How it was run: as §1

Fuc(a1-2)Gal(b1-4)Glc = molecular target: Fuc(a1-2)Gal(b1-4)Glc
How it was run: as §1

Fuc(a1-2)Gal(b1-4)Glc6S = molecular target: Fuc(a1-2)Gal(b1-4)Glc6S
How it was run: as §1

Fuc(a1-2)Gal(b1-4)GlcNAc = molecular target: Fuc(a1-2)Gal(b1-4)GlcNAc
How it was run: as §1

[22] = molecular target: Fuc(a1-2)Gal(b1-4)GlcNAc(b1-2)Man
How it was run: as §1

[23] = molecular target: Fuc(a1-2)Gal(b1-4)GlcNAc(b1-2)Man(a1-3)[Fuc(a1-2)Gal(b1-4)GlcNAc(b1-2)Man(a1-6)]Man(b1-4)GlcNAc(b1-4)GlcNAc
How it was run: as §1

[24] = molecular target: Fuc(a1-2)Gal(b1-4)GlcNAc(b1-2)Man(a1-3)[Fuc(a1-2)Gal(b1-4)GlcNAc(b1-2)Man(a1-6)]Man(b1-4)GlcNAc(b1-4)[Fuc(a1-6)]GlcNAc
How it was run: as §1

B1: MAL-II (Maackia amurensis), P93248 (protein)
chain: ATSNSKPTQVLLATFLTFFFLLLNNVNSSDELSFTINNFVPNEADLLFQGEASVSSTGVLQLTRVENGQPQQYSVGRALYAAPVRIWDNTTGSVASFSTSFTFVVKAPNPTITSDGLAFFLAPPDSQIPSGRVSKYLGLFNNSNSDSSNQIVAVEFDTYFGHSYDPWDPNYRHIGIDVNGIESIKTVQWDWINGGVAFATITYLAPNKTLIASLVYPSNQTSFIVAASVDLKEILPEWVRVGFSAATGYPTQVETHDVLSWSFTSTLEANSDAATENNVHIARYTA
glycan array binding signal (z-score) (Fuc(a1-2)Gal): -0.232
glycan array binding signal (z-score) (Fuc(a1-2)Gal(b1-3)GalNAc): -0.226
glycan array binding signal (z-score) [1]: -0.134
glycan array binding signal (z-score) [2]: -0.182
glycan array binding signal (z-score) [3]: -0.131
glycan array binding signal (z-score) [4]: -0.153
glycan array binding signal (z-score) [5]: -0.232
glycan array binding signal (z-score) (Fuc(a1-2)Gal(b1-3)GlcNAc): -0.075
glycan array binding signal (z-score) [6]: -0.037
glycan array binding signal (z-score) [7]: -0.188
glycan array binding signal (z-score) [8]: -0.209
glycan array binding signal (z-score) [9]: -0.274
glycan array binding signal (z-score) [10]: -0.086
glycan array binding signal (z-score) [11]: -0.218
glycan array binding signal (z-score) [12]: -0.193
glycan array binding signal (z-score) [13]: -0.25
glycan array binding signal (z-score) [14]: -0.237
glycan array binding signal (z-score) [15]: -0.185
glycan array binding signal (z-score) [16]: -0.066
glycan array binding signal (z-score) [17]: -0.218
glycan array binding signal (z-score) [18]: -0.176
glycan array binding signal (z-score) [19]: -0.218
glycan array binding signal (z-score) [20]: -0.202
glycan array binding signal (z-score) [21]: 0.178
glycan array binding signal (z-score) (Fuc(a1-2)Gal(b1-4)Glc): -0.226
glycan array binding signal (z-score) (Fuc(a1-2)Gal(b1-4)Glc6S): -0.187
glycan array binding signal (z-score) (Fuc(a1-2)Gal(b1-4)GlcNAc): -0.176
glycan array binding signal (z-score) [22]: -0.227
glycan array binding signal (z-score) [23]: -0.185
glycan array binding signal (z-score) [24]: -0.213

Source: the supplement of paper PMC8728848
